The source gives no read counts; variants with many changes may rest on few reads.
B1: LINE1-mini (parent)
chain: GGCAGAGCUCAACACAGCGUGGCAAAGUGGCUGUGGCUAGACUGCC

Variants of: B1
Assay: self-cleavage, relative activity (ratio to wild type); higher = more cleavage; in vitro, sequencing; the parent is a self-cleaving ribozyme
In the case of GGCAGAGCUCAACACAGCCUGGCAAAGUCGCUGUGGCUCGACUGCC [G19C G29C A39C], the self-cleavage is reported as 0.18. Variant GGCAGAGCUCAACACAGCCUGGCAAAGUCGCUGUUGCUAGACUGCC [G19C G29C G35U] has a self-cleavage of 0.08. Variant GGCAGAGCUCAACACAGCCUGGCAAAGUUGCUGUGGCUAGACUGCU [G19C G29U C46U] has a self-cleavage of 1.19. In the case of GGCAGAGCUCAACACAGCCUGGCAAAGUUUCUGUGGCUAGACUGCC [G19C G29U G30U], the self-cleavage is reported as 0.81. In the case of GGCAGAGCUCAACACAGCCUGGCAAAGUUGCUGUGGCUACAUUGCC [G19C G29U G40C C42U], the self-cleavage is reported as 0.04. With GGCAGAGCUCAACACAGCCUGGCAAAGUUGCGGUUGCUAGACUGCC [G19C G29U U32G G35U] the self-cleavage was 0.03. Variant GGCAGAGCUCAACACAGCCUGGCAAAGUUGCGGGGGCUAGACUGCC [G19C G29U U32G U34G] has a self-cleavage of 0.04. In the case of GGCAGAGCUCAACACAGCCUGGCAAAGUGACUGUGGAUAGACUGCC [G19C G30A C37A], the self-cleavage is reported as 0.03. For GGCAGAGCUCAACACAGCCUGGCAAAGUGCCUGUGGCUAGAGUGCC [G19C G30C C42G], the self-cleavage was 0.05. With GGCAGAGCUCAACACAGCCUGGCAAAGUGUCUGUGGCUAGACUACC [G19C G30U G44A] the self-cleavage was 0.06. For GGCAGAGCUCAACACAGCCUGGCAAAGUGGCUAUGGCGAGACUACC [G19C G33A U38G G44A], the self-cleavage was 0.01. Work on GGCAGAGCUCAACACAGCCUGGCAAAGUGGCUCUGACUAGACUGCC [G19C G33C G36A] yielded a self-cleavage of 0.06. Variant GGCAGAGCUCAACACAGCCUGGCAAAGUGGCUGUAGCUAUACUGCC [G19C G35A G40U] has a self-cleavage of 0.1. GGCAGAGCUCAACACAGCCUGGCAAAGUGGCUGUUUCUAGACUGCC [G19C G35U G36U] showed a self-cleavage of 0.3. Variant GGCAGAGCUCAACACAGCCUGGCAAAGUGGCUGUGAAUAGACUGUU [G19C G36A C37A C45U C46U] has a self-cleavage of 0.08. For GGCAGAGCUCAACACAGCCUGGCAAAGUGGCUGUGACGAGACUGCC [G19C G36A U38G], the self-cleavage was 0.02. Work on GGCAGAGCUCAACACAGCCUGGCAAAGUGGCUGUGUCUAGAAUGCC [G19C G36U C42A] yielded a self-cleavage of 0.01. In the case of GGCAGAGCUCAACACAGCCUGGCAAAGUGGCUGUGUCCAGACUGCC [G19C G36U U38C], the self-cleavage is reported as 0.02. In the case of GGCAGAGCUCAACACAGCCAGGAAAAGUUGCUGUGGCUAGACUGCC [G19C U20A C23A G29U], the self-cleavage is reported as 0.07. With GGCAGAGCUCAACACAGCCAAGCAAAGUGGCUGUGGCUAGACUGCC [G19C U20A G21A] the self-cleavage was 0.54. GGCAGAGCUCAACACAGCCAAGCAAAGUGGCUGUGGAUAGACUGCC [G19C U20A G21A C37A] gave a self-cleavage of 0.01. GGCAGAGCUCAACACAGCCAGGCAAAAUGGCUGUGGCUAGACUGCC [G19C U20A G27A] gave a self-cleavage of 0.37. GGCAGAGCUCAACACAGCCAGGCAAAAUGGUUGUGGCUAGACUGCC [G19C U20A G27A C31U] gave a self-cleavage of 0.28. Variant GGCAGAGCUCAACACAGCCAGGCAAACUGGGGGUGGCUAGACCGCC [G19C U20A G27C C31G U32G U43C] has a self-cleavage of 0.02. In the case of GGCAGAGCUCAACACAGCCAGGCAAAGUGGCUAUGGCUAGACUGCC [G19C U20A G33A], the self-cleavage is reported as 0.04. For GGCAGAGCUCAACACAGCCCGGCAUAGUGGCUGUUGCUAGACUGCC [G19C U20C A25U G35U], the self-cleavage was 0.01. With GGCAGAGCUCAACACAGCCCGGCAAAGUGGUUGUGGCUAGACUGCC [G19C U20C C31U] the self-cleavage was 0.21. Variant GGCAGAGCUCAACACAGCCCGGCAAAGUGGCUGUGGCUAGACUGAC [G19C U20C C45A] has a self-cleavage of 0.61. For GGCAGAGCUCAACACAGCCCGGCAAAGUGGCUGUGGCUAGACUGGC [G19C U20C C45G], the self-cleavage was 0.07. Variant GGCAGAGCUCAACACAGCCCGCCAAAGUGGCUGUGGCUAGACUGCC [G19C U20C G22C] has a self-cleavage of 0.22. In the case of GGCAGAGCUCAACACAGCCCGGCAAAAUGGCUGUGGUUAGACUGCC [G19C U20C G27A C37U], the self-cleavage is reported as 0.02. With GGCAGAGCUCAACACAGCCGGGCGAUGUGGCUGUCGCUAGACUGCC [G19C U20G A24G A26U G35C] the self-cleavage was 0.11. With GGCAGAGCUCAACACAGCCGGGCACAGUGGCUGUGGGUAGACUGCC [G19C U20G A25C C37G] the self-cleavage was 0. In the case of GGCAGAGCUCAACACAGCCGGGCAAAGUGGCUGUGGCUCGACUGCG [G19C U20G A39C C46G], the self-cleavage is reported as 0. Variant GGCAGAGCUCAACACAGCCGGGCAAAGUGGCUGUGGGUAGUCUGCC [G19C U20G C37G A41U] has a self-cleavage of 0.01. GGCAGAGCUCAACACAGCCUGGCAAAGAUGCUGUGGCUAGGCUGCC [G19C U28A G29U A41G] gave a self-cleavage of 0.08. With GGCAGAGCUCAACACAGCCUGGCAAAGGGGCUGUUGCUAGACUGCC [G19C U28G G35U] the self-cleavage was 0.01. GGCAGAGCUCAACACAGCCUGGCAAAGUGGCAGGGGCUAGACUGCC [G19C U32A U34G] gave a self-cleavage of 0. In the case of GGCAGAGCUCAACACAGCCUGGCAAAGUGGCCGUGGCUAGAUUGCC [G19C U32C C42U], the self-cleavage is reported as 0.07. GGCAGAGCUCAACACAGCCUGGCAAAGUGGCGGUUGCUAGACUGCC [G19C U32G G35U] gave a self-cleavage of 0.06. Work on GGCAGAGCUCAACACAGCCUGGCAAAGUGGCGGUGGCGAGACUGUC [G19C U32G U38G C45U] yielded a self-cleavage of 0.03. In the case of GGCAGAGCUCAACACAGCCUGGCAAAGUGGCUGAGGCUAGACUGCG [G19C U34A C46G], the self-cleavage is reported as 0.19. In the case of GGCAGAGCUCAACACAGCCUGGCAAAGUGGCUGCGGCUAGAUUAGC [G19C U34C C42U G44A C45G], the self-cleavage is reported as 0.01. With GGCAGAGCUCAACACAGCCUGGCAAAGUGGCUGGGGCUAGACUGGA [G19C U34G C45G C46A] the self-cleavage was 0.08. Variant GGCAGAGCUCAACACAGCCUGGCAAAGUGGCUGGGGCUACACUGCC [G19C U34G G40C] has a self-cleavage of 0.01. Variant GGCAGAGCUCAACACAGCCUGGCAAAGUGGCUGUGGCCUGACUGCC [G19C U38C A39U] has a self-cleavage of 0.07. GGCAGAGCUCAACACAGCCUGGCAAAGUGGCUGUGGCGGGACUGCC [G19C U38G A39G] showed a self-cleavage of 0. GGCAGAGCUCAACACAGCUUGGCCAAGUGGCUGUUGCUAGAGUGCC [G19U A24C G35U C42G] gave a self-cleavage of 0.04. In the case of GGCAGAGCUCAACACAGCUUGGCCAAGUGGCUGUGGCUACACUGCC [G19U A24C G40C], the self-cleavage is reported as 0.11. Work on GGCAGAGCUCAACACAGCUUGGCGAAGUCGCUCUGGCGAGACUGCC [G19U A24G G29C G33C U38G] yielded a self-cleavage of 0.07. Variant GGCAGAGCUCAACACAGCUUGGCUAAGUGGCUGUGACUAGACUGCC [G19U A24U G36A] has a self-cleavage of 0.27. Variant GGCAGAGCUCAACACAGCUUGGCACAGUGGCUGUGGGUAUACUGCC [G19U A25C C37G G40U] has a self-cleavage of 0.1. For GGCAGAGCUCAACACAGCUUGGCAGAGUGGCUGUGGCUCGACUUCC [G19U A25G A39C G44U], the self-cleavage was 0.01. Variant GGCAGAGCUCAACACAGCUUGGCAACGUGGCUGUGGCUAGAUUGUC [G19U A26C C42U C45U] has a self-cleavage of 0.17. For GGCAGAGCUCAACACAGCUUGGCAACUUGGCUGUGGCUAGACUGCC [G19U A26C G27U], the self-cleavage was 0.2. For GGCAGAGCUCAACACAGCUUGGCAAUGUGGCUGUGGCUAGAUUGCC [G19U A26U C42U], the self-cleavage was 0.11.
